Test results taken from the supplement of paper PMC11417369.
± gives the standard deviation of the averaged measurements. The list shows a part of the results.

Test system: PfAP2-I AP2 domain 3 (GST-tagged)
Assay: gcPBM binding intensity (ln(normalized median fluorescence intensity)); higher = stronger DNA binding
In short: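 GST-tagged P. falciparum DNA-binding domains, expressed in E. coli (about 25 μg on average), were applied for 1 h to an Agilent 4 × 180k array of primer-extended double-stranded 36-bp intergenic genomic probes plus negative controls. The binding buffer was 1× PBS with 1% milk, 0.2 mg/ml BSA, 0.5% salmon testes DNA and 0.03% Triton X-100. Bound protein was detected with Alexa488 anti-GST antibody and scanned at 488 nm. Binding intensity is the highest Masliner-normalised natural-log median intensity across replicate spots of either probe orientation.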

Sequence | gcPBM binding intensity (ln)
CTTTATCTTTTTCATTGTACTTTATTTTAAAATTAA [XGTACX_site4858] | 8.18 ± 0.57
TATTTATGTAGATACACACCCATGTTATATGGAGGT [CACACA_site3461] | 7.63 ± 0.61
TTTCTTTTTTTTTTTATTTACCTGAATTATGTATTA [TGCATGCA_negctrl_site345] | 7.42 ± 0.57
GCTTGTTCAAAAATGAGTACATACAAATAGTTGTAT [XGTACX_site1770] | 8.13 ± 0.028
CTCGTATATATAATACGTACATATTATATATATATA [XGTACX_site1704] | 9.005 ± 0.064
TTTACATACAAATTAACACACATATAGAAAAGAGAA [CACACA_site1889] | 8.07 ± 0.65
TCCTTTCTTTTTTAAACATGCATATGTAATATAAAT [TGCATGCA_site979] | 7.89 ± 0.6
CCTTCATCATATTTAACACACAGAGAAAAAGCGGAT [CACACA_site274] | 8.23 ± 0.57
AAAAAAAAAAAAAAAAAAACCACAAACAAATATGAA [TGCATGCA_negctrl_site34] | 9.24 ± 0.057
TTTTAAAATATATTTGTATATATATATATATATATA [XGTACX_negctrl_site536] | 9.15 ± 0.42
ATAATATAATAATACACACTCATTATATATATAAAG [CACACA_site3956] | 7.83 ± 0.38
AAAAAAAATAAACACACACACATACCCATAAATATA [CACACA_site5980] | 7.88 ± 0.29
TTTGAAATATTTATTTGTACATATACACACTTAAAT [XGTACX_site8321] | 7.88 ± 0.35
ATATTATTTTGTCAGGGTACATTCCATAAGTTTTTT [XGTACX_site6855] | 7.98 ± 0.59
TTATAAATTTAAAGTAGTACTATACTACTATTTTAT [XGTACX_site3038] | 7.62 ± 0.23
CATTTTTTATAATAATGTACATGTATTAAAAAAAAA [XGTACX_site6390] | 8.02 ± 0.61
TTTATAAGAATTACTAGTACATATAAGGAATTATAT [XGTACX_site3953] | 7.63 ± 0.5
ATCCACAAAATAGGATGTACATATAAAATAAATAAA [XGTACX_site5362] | 7.64 ± 0.38
TATGGAATAATACGCGTACACACATATATATATTAA [CACACA_site132] | 8.11 ± 0.32
AATGGGGAAGGTTCTACACACAACGCAAATGCCTTA [CACACA_site2758] | 7.84 ± 0.71
AAATTATTATGTATTTGTACACATAAGAATATAAAA [XGTACX_site6841] | 7.83 ± 0.46
TATAAATAATGTTAAACACACATACCGATATATAAT [CACACA_site5499] | 7.68 ± 0.64

Sequence | gcPBM binding intensity (ln)
TCAGTTAATGTATATGTACACACGGTGAGTATATAT [CACACA_site3346] | 7.82 ± 0.65
AGAGAAAGAAAGAAATGTACAAATACCTACACACAT [XGTACX_site3140] | 7.89 ± 0.51
TATTTTTTTCATAACAGTACAATAATATATATTTTT [XGTACX_site5739] | 7.75 ± 0.32
GCACACACAAAAAAAGCATGCATACTAGCTATTTTT [TGCATGCA_site18] | 7.7 ± 0.72
TTTTTTACAAATGATATCATTTCTTTAAATATTAAA [TGCATGCA_negctrl_site279] | 7.68 ± 0.61
CTATAAATGAATGTTTGTACTTAATAATAAAAGAAA [XGTACX_site3170] | 7.83 ± 0.3
AATGAAATAAATAAGGGTACACATAAATATATATAT [XGTACX_site7006] | 9.025 ± 0.078
TATTCGTGCAATAATAGTACACTTATAAATTATTCA [XGTACX_site8993] | 11.2 ± 0.66
AAAAAACACCCATACACACACACACCGATATATATA [CACACA_site5808] | 8.19 ± 0.7
AATCAAAAAAAATGTTGTACGCCTAATTATAATTAA [XGTACX_site8906] | 8.06 ± 0.16
ATTCTATATATATAAACACACAAATATTTTTATATA [CACACA_site1677] | 7.87 ± 0.43
TTTTAGTGAAATGAGTGTACATTATATATTTTTTTT [XGTACX_site4892] | 7.64 ± 0.38
ATATAAGGAAGGGATGCACACAAAAGGGTACATAAG [CACACA_site9328] | 8.29 ± 0.54
AAGACTAATCTAGGTAGTACTTATATATCTTTATTT [XGTACX_site4572] | 7.54 ± 0.35
TTTTTTATATATGTGTGTGTGTGTGTGTCAAGTTTA [GTGCAC_negctrl_site460] | 8.01 ± 0.2
ATAACATAATAGCAACAATTTATTTCCTCTATAACA [CACACA_negctrl_site243] | 7.73 ± 0.58
TTTGGGATATTTACAGTGCAAAGATATTTTTATAAT | 9.21 ± 0.11
ATATTTTTGTTCAGGAGTACAGTTCAAGATGAAAAT [XGTACX_site4178] | 8.3 ± 0.27
ATATAATATTACAAATGTACTTTAAAAAATTAGGAG [XGTACX_site3897] | 7.72 ± 0.45
TTGTTTCAAGAAAAAATCGAAAAACATAGAAAAAAA [XGTACX_negctrl_site615] | 7.68 ± 0.69
ACATATAAAATATATACACACATATAAATACATTAA [CACACA_site3867] | 7.66 ± 0.38
TATATATCAAAAATATGTACACAGAAATATATATTA [XGTACX_site6997] | 8.04 ± 0.48

Sequence | gcPBM binding intensity (ln)
TTGCAATAATGTTGCACACTAAATAGTCATATATAA [CACACA_site263] | 8.835 ± 0.078
TCACATACATTACTTACACACCATATTAATATATAC [CACACA_site8047] | 8.19 ± 0.59
AATAAAAAATAAAAAATAAACAGTATACATATATAT [GTGCAC_negctrl_site31] | 7.77 ± 0.75
TCATATTAATTTGATAGTACATATACTTTGAAGTCC [XGTACX_site3767] | 7.74 ± 0.46
TGTATATAAACAAGGGGTACAATAATATAAATAAAT [XGTACX_site8675] | 8.33 ± 0.21
TTTTTTTTTTTTTTTACACACTATAGGGAAAAAAAA [CACACA_site1916] | 8.24 ± 0.61
AAAAATATAATATATCTAAAATTTTTCATTAAATAT [XGTACX_negctrl_site274] | 7.4 ± 0.54
ATAAATAAAAATACATGAACAGGTCAGGTTATTTTT [CACACA_negctrl_site1007] | 7.29 ± 0.61
TTATATATAGAATAAACATGCATTTGTATATGAATA [TGCATGCA_site604] | 7.71 ± 0.53
ACATATATATATTTATATATATATATATATATGTGA [CACACA_negctrl_site613] | 8.02 ± 0.35
TGTTGTAACAAAAGTACACACACATTTCTATAAATT [CACACA_site8894] | 7.98 ± 0.042
ATTACATAACAATATACACACTATTGATTAAAGAGA [CACACA_site5602] | 7.76 ± 0.47
ATAATATAAATAAAGCGTACTTAATTTTATATATAT [XGTACX_site4626] | 7.86 ± 0.45
TATTTAAAAGTATATACACACAACTGGAATGAAAAG [CACACA_site4126] | 8.18 ± 0.64
CATTATGTCATAAATGCACACATATATATATACATA [CACACA_site8454] | 9.69 ± 0.19
AAAATTAAAAAAATAAATACATTATATAATTAAAAA [CACACA_negctrl_site1426] | 7.51 ± 0.53
TATGTATGCCCTAATGCATGTGAACAAAATAATATA [TGCATGCA_site407] | 8.06 ± 0.46
TATTTTAATCGTAAGTGTACTCTTTTAAGTATATGT [XGTACX_site8591] | 7.85 ± 0.21
ATTATAACACCTCCCCCCCTTTTTTTATGAAGACCA [CACACA_negctrl_site1043] | 10.3 ± 0.2
AACAGACATAGACACACACACATATATTTATTTATA [CACACA_site7571] | 8.02 ± 0.57
ATGCAAATAATATAAAGTACACAACATCGCCCAAAG [XGTACX_site1825] | 8.45 ± 0.55
TTTTTTAAATTTTGAATTATAACTACATTAAAGAAA [GTGCAC_negctrl_site279] | 7.46 ± 0.45

Sequence | gcPBM binding intensity (ln)
ACCATATAAATAAACACACACACACCCATATATATA [CACACA_site2321] | 8.27 ± 0.76
TATATATCTATATTTACACACAGTTACTATGTAGAT [CACACA_site7532] | 7.44 ± 0.35
ATAATATGTATAATCACACATTTTTCTTTTAAGACA [CACACA_site5297] | 7.61 ± 0.53
GTTAAACTTAATATCGGTACACACACAAGATAAGAA [XGTACX_site1660] | 8.09 ± 0.49
TAAAATATCATAGATAGTACATATAACGTTTTATAT [XGTACX_site5666] | 7.61 ± 0.48
CATGACATAAAAAATATACACACTATAATATATATA [CACACA_site1402] | 8.27 ± 0.36
AAATATATTATATTTAGTACGCATATATAATATGCA [XGTACX_site4835] | 7.63 ± 0.28
ATGAAAATTTATATTGCACACATAGGGAATAAAAAA [CACACA_site8667] | 10.8 ± 0.71
AGTTAATTAATAGGCACACATATATATGTATAAATA [CACACA_site523] | 8.19 ± 0.35
AGAATAAGAATTATTAGTACTTATAAATATTATATT [XGTACX_site7228] | 7.46 ± 0.3
GTAAATACACATATGTGTACATATATATATATATAT [XGTACX_site3696] | 9.36 ± 0.64
TAATTTAAAATATATAGTACACACGTGAACACAAAT [XGTACX_site792] | 8.22 ± 0.33
CTATTACATTAAATGTGTACATATATATATATATAT [XGTACX_site5233] | 9.25 ± 0.38
GTGGCTACTATATATTGTACGATATTATATATATAC [XGTACX_site8376] | 7.73 ± 0.52
GGTTCATTAAAGTGTACACATAAATACCGTAACATT [CACACA_site6002] | 7.92 ± 0.64
CTAAGGTATGATTAATCACACACATAAATATATATA [CACACA_site8847] | 8.02 ± 0.73
CACAAGAAAATTCACACACACACATATATATATATA [CACACA_site3880] | 9.26 ± 0.31
TCCTTAATTCAAAAAATAATATCTTATATTTCAAAT [CACACA_negctrl_site1592] | 7.34 ± 0.44
GGAATAAAGACAGCACGTACATATCTTACGAAGCTC [XGTACX_site3918] | 8 ± 0.4
ATATTAATTTCTCATGCATGTTCTTCCCAATTGTAA [TGCATGCA_site425] | 7.99 ± 0.81
GGTTAGACGAAATATACATGCAATGGAAAATAAGTT [TGCATGCA_site23] | 8.4 ± 0.61
TCATCATGTATGTACACACATACATATATTATGTAC [CACACA_site1386] | 7.83 ± 0.43
